From patent US20100330116A1, “LIVE […] USE AS VACCINE” (The University of Queensland, priority 2004, published 2010)

Tests used:
FD436 [1] = test: MIC determination of nalidixic acid and rifampicin (broth dilution, Bioscreen turbidity); conditions: FD436, 37° C.
Description: (§1) MIC was defined as the lowest concentration of antimicrobial agents which inhibits visible bacterial growth, and MBC is the lowest concentration of the agents which kills a defined proportion (usually 99.9%) of the bacterial population after incubation for a set time (Collins et al., Microbiological Methods pp 86, 114-115, 178-205, Butterworth-Heineman, Oxford, England, 1995). The broth dilution method was used for determining MIC. The method for determining MBC was an extension of the broth dilution method.
(§2) Two percent (w/v) nalidixic acid solution, or 1% (w/v) rifampicin solution, was added to TSB to make 2 ml of TSB media containing graded concentrations of nalidixic acid or rifampicin (0.04, 0.02, 0.01, 0.005, 0.0025, 0.00125, 0.000625 and 0.0003125% (w/v)). TSB media containing no antimicrobials were also prepared as controls. TSB medium was used instead of the conventionally recommended media for MIC and MBC determinations as metabolic-drift mutants may be more fastidious than their parent strains and thus may require highly nutritious media, such as TSB.
(§3) Turbidity (OD420-580) measured by Bioscreen and visual observation after 24 h incubation at 37° C. were the criteria used for assessing the growth of bacteria. FD436 was mixed with the above TSB media containing the graded concentrations of antimicrobials to make approximately 10^6 cfu/ml bacterial suspensions (the actual concentration was 9.6×10^5 cfu/ml). Inoculated and uninoculated TSB containing no antimicrobials were included as positive and negative controls, respectively. […] In addition, the remainder of the medium was incubated aerobically at 37° C. for 24 h for visual observation of turbidity. The MICs of the antimicrobials were determined based on the definition described previously. For determining the MBC, each medium containing antimicrobial concentrations above the MIC was diluted with TSB to the MIC, and 1 ml of each was pipetted directly onto an SBA plate and distributed with a sterile glass spreader. […] Colonies growing on the SBA were identified using the Salmonella identification procedure. The MBC of each antimicrobial was determined based on the definition described previously.

FD436 [2] = test: MBC determination of nalidixic acid and rifampicin (growth on SBA plates)
Description: as §1, §2, §3

[3] = 0.0003125% (w/v) antimicrobial in TSB
[4] = 0.000625% (w/v) antimicrobial in TSB
[5] = 0.00125% (w/v) antimicrobial in TSB
[6] = 0.005% (w/v) antimicrobial in TSB
[7] = 0.01% (w/v) antimicrobial in TSB
[8] = 0.02% (w/v) antimicrobial in TSB
[9] = 0.04% (w/v) antimicrobial in TSB
[10] = TSB originally 0.0003125% (w/v) antimicrobial
[11] = TSB originally 0.000625% (w/v) antimicrobial
[12] = TSB originally 0.00125% (w/v) antimicrobial
[13] = TSB originally 0.005% (w/v) antimicrobial
[14] = TSB originally 0.01% (w/v) antimicrobial
[15] = TSB originally 0.02% (w/v) antimicrobial
[16] = TSB originally 0.04% (w/v) antimicrobial

Row | Compound | Turbidity of TSB media after 24-hour incubation measured using Bioscreen (FD436 [1]; [3]) | Turbidity of TSB media after 24-hour incubation measured using Bioscreen (FD436 [1]; [4]) | Turbidity of TSB media after 24-hour incubation measured using Bioscreen (FD436 [1]; [5]) | Turbidity of TSB media after 24-hour incubation measured using Bioscreen (FD436 [1]; [6]) | Turbidity of TSB media after 24-hour incubation measured using Bioscreen (FD436 [1]; [7]) | Turbidity of TSB media after 24-hour incubation measured using Bioscreen (FD436 [1]; [8]) | Turbidity of TSB media after 24-hour incubation measured using Bioscreen (FD436 [1]; [9]) | Growth of Salmonella on SBA plates after 48-hour incubation (colonies) (FD436 [2]; [10]) | Growth of Salmonella on SBA plates after 48-hour incubation (colonies) (FD436 [2]; [11]) | Growth of Salmonella on SBA plates after 48-hour incubation (colonies) (FD436 [2]; [12]) | Growth of Salmonella on SBA plates after 48-hour incubation (colonies) (FD436 [2]; [13]) | Growth of Salmonella on SBA plates after 48-hour incubation (colonies) (FD436 [2]; [14]) | Growth of Salmonella on SBA plates after 48-hour incubation (colonies) (FD436 [2]; [15]) | Growth of Salmonella on SBA plates after 48-hour incubation (colonies) (FD436 [2]; [16]) | Turbidity of TSB media after 24-hour incubation measured using Bioscreen (FD436 [1]; 0.0025% (w/v) antimicrobial in TSB) | Growth of Salmonella on SBA plates after 48-hour incubation (colonies) (FD436 [2]; TSB originally 0.0025% (w/v) antimicrobial)
1 | CCn1cc(C(=O)O)c(=O)c2ccc(C)nc21 [Nalidixic acid] | + | + | − | − | − | − | − | P.G (P.G = profuse growth (greater than 1.0 × 10^3 colonies)) | P.G (P.G = profuse growth (greater than 1.0 × 10^3 colonies)) | N.G | N.G | N.G | 8 | 1 |  | 
2 | CO[C@H]1/C=C/O[C@@]2(C)Oc3c(C)c(O)c4c(O)c(c(/C=N/N5CCN(C)CC5)c(O)c4c3C2=O)NC(=O)/C(C)=C\C=C\[C@H](C)[C@H](O)[C@@H](C)[C@@H](O)[C@@H](C)[C@H](OC(C)=O)[C@@H]1C [Rifampicin] | + | + | + | − | − | − | − | P.G (P.G = profuse growth (greater than 1.0 × 10^3 colonies)) | P.G (P.G = profuse growth (greater than 1.0 × 10^3 colonies)) | P.G (P.G = profuse growth (greater than 1.0 × 10^3 colonies)) | 5 | 1 | 1 | N.G | − | 6
